Source: PubChem BioAssay AID1963576 (National Center for Advancing Translational Sciences (NCATS), 2024)
Out of some 46,000 compounds screened, about 60 (0.1%) were called active. Roughly 3% stayed inconclusive and do not appear here. Calls follow the shape of the dose curve; as a rule, active = well fitted inhibition curve with a large enough effect; inconclusive = small, poorly fitted or top-dose-only effect; inactive = no such curve, though single readings can be large or run the other way. The list shows a part of the results.

Assay: Primary qHTS assay for Inhibitors of ovarian cancer metastasis using an organotypic tumor microenvironment (TME) model. Also: nearly all actives have a fitted effect of over 65% in size.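 As to activity change, negative = inhibition: plate controls were DMSO wells for no effect and tomatine positive control wells for full effect.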
Conditions: SKOV3ip1-GFP adhesion/invasion on 3D omental model, fluorescence; series mostly up to 45.8 µM; activity change, negative = inhibition: at the top concentration
In short: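 Adhesion/invasion was scored as fixed GFP-labeled SKOV3ip1 cell counts (488/509 nm), normalized to DMSO and tomatine controls. Cancer cells in serum-free medium, with four compound doses (0.36-46 umol/L), sat 2 hr at RT then 16 hr at 37 C on a 48 hr fibroblast/mesothelial/ECM culture.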

outcome, inactive:
Cc1cccc(OC(=O)c2cc(-c3ccc4c(c3)OCCO4)on2)c1
Cc1ccc(NS(=O)(=O)c2ccc3c(c2)NC(=O)CCS3)cc1C
CCOC(=O)CNC(=O)N1CCc2cc(S(=O)(=O)N3CCC(C)CC3)ccc21
CNC(=O)C1CCC(Cn2c(=O)[nH]c3ccsc3c2=O)CC1 (stereo unspecified)
CCOC(=O)c1ccc(N2C(=O)c3n[nH]c(C)c3C2c2ccc(C(C)(C)C)cc2)cc1 (stereo unspecified)
CCN(CC)S(=O)(=O)c1ccc(C(=O)Nc2nc3c(Cl)cc(Cl)cc3s2)cc1
Cc1ccccc1CNC(=O)C1CCN(c2nnc(-n3c(C)ccc3C)s2)CC1
CCOC(=O)c1cccc(NC(=O)c2cc3cc4ccc(C)cc4nc3o2)c1
CCc1cccc(CC)c1NC(=O)C(CC)n1nc(C)n2c(cc3cc(C)ccc32)c1=O (stereo unspecified)
COc1ccc(Br)cc1CNC(=O)CSc1cc(=O)n(C)c2ccccc12
Cc1ccccc1-c1noc(-c2cc3ccccc3oc2=O)n1
Cc1ccc(-n2ncc(C(=O)Nc3ccc4c(c3)OCCO4)c2C2CCN(C(=O)OC(C)(C)C)CC2)cc1
Cc1cccc(CNC(=O)c2cccc(NC(=O)N3CCSc4ncccc43)c2)c1
CCOC(=O)N1CCC(NC(=O)c2ccc3c(c2)N(Cc2ccccc2)C(=O)c2ccccc2S3=O)CC1 (stereo unspecified)
CCOc1ccc(-n2ccn3c(CC(C)CC(=O)O)nnc3c2=O)cc1 (stereo unspecified)
Cc1ccc(S(=O)(=O)c2cnc(SC(C)C(=O)Nc3ccccc3)[nH]c2=O)cc1 (stereo unspecified)
CC(=O)C1=C(c2ccc(Cl)c(Cl)c2)N(C(C)=O)n2c(nnc2C2CCCCC2)S1
CCn1cc2nc(SCc3ccccc3Cl)n(CCc3ccccc3)c(=O)c2n1
Cc1ccc(-c2nc(NC(=O)CSc3ncnc4sc5c(c34)CCC(C)C5)ns2)cc1 (stereo unspecified)
O=C(NCc1ccccc1)C(=O)NCC(c1ccc2c(c1)OCO2)N1CCOCC1 (stereo unspecified)
CC1CCC(NC(=O)c2ccc3c(c2)N(Cc2ccccc2F)C(=O)c2ccccc2S3=O)CC1 (stereo unspecified)
COc1cccc(CNC(=O)C(NS(=O)(=O)c2cccs2)C(C)C)c1 (stereo unspecified)
CCCCc1nn2c(=O)cc(COC(=O)c3ccc(NC(=O)c4ccccc4Cl)cc3)nc2s1
COc1ccc(NC(=O)Cn2c3ncccc3c(=O)n2-c2ccc(C)c(C)c2)c(OC)c1
Cc1cc(C)cc(NC(=O)c2cc(S(=O)(=O)NCCC3=CCCCC3)ccc2F)c1
Cc1ccc2[nH]c(=O)c3cc(C(=O)N(C)c4ccc(Br)cc4)sc3c2c1
Cc1nnc(NC(=O)CSc2nc3c([nH]c4ccccc43)c(=O)n2-c2ccc(Cl)cc2)s1
COc1ccc2c(c1)c1c(c(=O)n(-c3ccc(F)c(Cl)c3)c(=O)n1Cc1cccc(C)c1)n2C
Cc1ccc(-c2cc(-c3ccc4c(c3)NC(=O)CO4)nc3c2COc2ccccc2-3)cc1
Cc1ccc2c(c1)C(=O)OC(C(=O)Nc1ncc(Cc3ccccc3Cl)s1)C2 (stereo unspecified)
Cc1cccc(N2C(=O)N(Cc3cc(=O)n4ccccc4n3)c3ccccc3S2(=O)=O)c1

Activity change, negative = inhibition, inactive:
CCOC(=O)c1ccc(NC(=O)COCc2cc(-c3ccc4c(c3)OCO4)on2)cc1 -0.837%
CSc1ccc(CNc2ncc(-c3ccccc3)n2C)cc1 -3.54%
CCOC(=O)c1cccc(NC(=O)c2cc(CN3CCOCC3)on2)c1 -19.8%
CC(=O)Nc1c(C)nn(-c2ccccc2)c1N1CCC(C(=O)Nc2ccc(F)cc2Cl)CC1 -12.8%
Cc1cccc(NC(=O)N2CCC(CN3CCC(C)CC3)CC2)c1C -3.44%
COc1ccc2c(c1)c(=O)c(S(=O)(=O)c1ccc(Cl)cc1)cn2C 0.872%
CCCn1c(SCc2nc(-c3cc(OC)ccc3OC)no2)nnc1-c1ccc(Cl)cc1 14.6%
Cc1ccc2c(c1)C(c1ccccc1)N(C(=O)c1ccccc1F)CC(=O)N2 (stereo unspecified) 3.66%
CCOC(=O)c1c(C)[nH]c(C)c1S(=O)(=O)N1CCCC(C(=O)Nc2ccccc2OCC)C1 (stereo unspecified) 75.4%
CCCc1ccc(OC(C)C(=O)Nc2sc3c(c2C(=O)OC)CCCCC3)cc1 (stereo unspecified) 4.61%
CC1CCN(S(=O)(=O)c2ccc3c(c2)oc(=O)n3CC(=O)NC(C)c2ccccc2)CC1 (stereo unspecified) 2.51%
Cc1ccc(-c2nc(CS(=O)(=O)CC(=O)N3CCN(c4cccc(C)c4C)CC3)c(C)o2)cc1 -0.411%
CCN1CCN(c2csc3ccc(C)cc3c2=O)CC1 2%
CCCCNC(=O)c1nn(-c2ccc(C)cc2)c(=O)c2c1c1ccccc1n2C 6.54%
CCOC(=O)c1cnc2ccc(OC)cc2c1NCCc1ccc(OC)c(OC)c1 6.28%
Cn1c(SCC(=O)N2CCCc3ccccc32)ncc(C(=O)Nc2ccc(F)cc2)c1=O -22.2%
CNc1c(NC(=O)c2cc(OC)cc(OC)c2)c(=O)oc2ccccc12 -40.5%
CSc1nc(Nc2cccc(C)c2)c(C#N)c(-c2ccccc2)n1 -5.51%
COc1cc(NC(=O)c2ccc(-c3nc(COc4ccccc4)c(C)o3)cc2)cc(OC)c1 -8.19%
CCCCN(Cc1ccccc1)S(=O)(=O)c1cc(Br)cc2c1N(C(=O)C1CC1)CC2 6.46%
CCOC(=O)C1=C[C@@H](OC(CC)CC)[C@H](NC(C)=O)[C@@H](N)C1 -14.4%
CCC12CN3CC(C)(CN(C1)C3c1ccccc1C)C2=O (stereo unspecified) 1.14%
Cc1ccccc1-c1nc2cc(NC(=O)c3cccc(OCCC(C)C)c3)ccc2o1 1.04%
COc1ccc2c(c1)c1c(c(=O)n(-c3ccc(C)cc3)c(=O)n1CC(=O)N1CCCC1)n2C -0.404%
CCOc1ccc(OCC)c(NC(=O)c2cc(CN3CCOCC3)on2)c1 0.177%
CCC(Cn1nnc2ccccc2c1=O)NC(=O)Nc1ccc(C)cc1 (stereo unspecified) -10.1%
O=C(CSc1nnc(CNC(=O)c2ccccc2F)n1-c1ccccc1)Nc1ccccc1F -3.03%
CCCNC(=O)CCn1nc(-c2ccccc2)c2ccccc2c1=O 2.69%
O=C(CCc1nnc2n(Cc3ccccc3Cl)c(=O)c3ccccc3n12)Nc1ccc(F)cc1 0.0328%
O=C(Nc1ccccc1Cl)c1cc(S(=O)(=O)N2CCC3(CC2)OCCO3)ccc1F 0.898%
O=C(NCCS(=O)(=O)N1CCN(c2ccccc2F)CC1)C(c1ccccc1)c1ccccc1 7.99%
COc1cc(C2C(=O)N(C3CCCCCC3)CC(=O)N2CCC2=CCCCC2)ccc1OC(C)C (stereo unspecified) -5.78%
Cc1ccc(NC(=O)CCNS(=O)(=O)c2ccc(Br)s2)cc1 0.313%
CCOc1ccc(N(CC)S(=O)(=O)N2CCCC(C(=O)Nc3ccc(OC)c(OC)c3)C2)cc1 (stereo unspecified) -8.86%
CCOc1ccc(-n2c(=O)c3sc4ccccc4c3n(Cc3cccc(C)c3)c2=O)cc1 -9.62%
COc1ccc(C2C(=O)N(C3CCCCC3)CC(=O)N2CCC2=CCCCC2)cc1 (stereo unspecified) -4.03%
O=C(NC1(C(F)(F)F)C(=O)Nc2c1c(=O)[nH]c(=O)n2-c1ccc(F)cc1)c1ccccc1 (stereo unspecified) -7.53%
Cc1cccc(N2CCN(C(=O)CCc3c(C)nc4c(c3C)c(=O)n(C)c(=O)n4C)CC2)c1C -10.5%
CCc1ccc(NS(=O)(=O)c2ccc3[nH]cc(C(=O)NCCc4cccc(C)c4)c(=O)c3c2)cc1 -15.4%
COc1ccc(-n2cc(C(=O)OCc3ccc(F)c(F)c3)c3ccccc3c2=O)cc1 -2.02%
Clc1ccc(-c2cn3ncsc3n2)cc1 3.23%
CCN1CCN(c2oc(/C=C/c3ccc(OC)c(OC)c3)nc2C#N)CC1 -2.52%
COc1ccc2c(c1)sc1ncc(C(=O)NCc3ccc(Cl)cc3)c(=O)n12 -2.96%
CCOc1ccc(CCNC(=O)Cn2ncn3c(cc4sc(C)cc43)c2=O)cc1OCC -9.47%
O=c1c2cccnc2n(Cc2ccccc2F)c(=O)n1Cc1ccc(F)cc1 -1.31%
CCCCN1C(=O)c2[nH]nc(-c3ccccc3O)c2C1c1cc(Br)c(O)c(OC)c1 (stereo unspecified) -5.16%
Cc1ccc(CN2CCSc3ccc(C(=O)N4CCN(c5ccc(Cl)cc5)CC4)cc32)cc1 3.31%
COc1ccccc1NC(=O)c1cc(S(=O)(=O)NCCc2ccccc2)ccc1F -1.93%
COc1cccc(CNC(=O)c2ccc3nc(N4CCCCC4)sc3c2)c1OC -0.568%
CCOCCCNC(=O)C(c1ccc(OC)cc1)N(Cc1ccc2c(c1)OCO2)C(=O)c1ccc(NC(C)=O)cc1 (stereo unspecified) 4.71%
O=S(=O)(Nc1ccc2nc(-c3ccc(F)cc3)oc2c1)c1ccccc1 -9.24%
Cc1ccc(NC(=O)c2cc(S(=O)(=O)N3CCCCC3)c[nH]2)cc1N(C)C 8.4%
CC(=O)Nc1cc(C(=O)NCc2ccccc2Cl)ccc1Sc1ccc(F)cc1 0.843%
CCOc1ccc2nc(N3CCN(C(=O)c4ccc5c(c4)CCCC5)CC3)sc2c1 -1.07%
CCc1ccc(NC(=O)C2CCN(c3nc(-c4ccc(OC)cc4)no3)CC2)cc1 0.94%
COc1ccc(CCNCc2c(C(=O)O)c(C)n(Cc3c(F)cccc3Cl)c2C)cc1OC 0.182%
Cc1cc(OCC(=O)Nc2ccc(C(=O)OC3CCCCC3)cc2)cc(C)c1Cl -20.3%
COc1ccc2c(c1)CC(C(=O)NCc1ccc(F)cc1)CO2 (stereo unspecified) 19.3%
Cc1cccc(C(=O)Nc2ccc3oc(-c4cccc5c(Br)cccc45)nc3c2)c1 -10.7%
Cc1c(CCC(=O)NCCc2ccccc2)c(=O)oc2cc(O)ccc12 -1.88%
CCOc1ccc2c(c1)c(=O)c(C(=O)c1ccccc1)cn2Cc1ccccc1 5.64%
Cc1ccc(C(=O)Nc2c(C(=O)NC(C)(C)C)oc3ccccc23)cc1 47.9%
COc1ccc(CNC(=O)Cn2nc3c(cc2=O)CCCC3)cc1 6.08%
Cc1ccc(-n2nc(C)c3nc(CCC(=O)Nc4cccc(C)c4C)c(=O)n(C)c32)cc1 4.78%
CCOC(=O)c1ccc(NC(=O)CSc2c(C(C)C)cnc3c2c(=O)n(C)c(=O)n3C)cc1 -7.29%
